Assay results published in PubChem BioAssay AID624417 (National Center for Advancing Translational Sciences (NCATS), 2012).
Among all 410,000 compounds or so, about 6,400 (1.6%) were called active. Inconclusive results, whose numbers are uncertain, are shown with a selection of clear calls. Calls come from the whole dose curve; as a rule, active = well fitted inhibition curve with a large enough effect; inconclusive = small, poorly fitted or top-dose-only effect; inactive = no such curve, though single readings can be large or run the other way. Potencies of inconclusive entries are left out as doubtful fits.
% is set by controls: 0 for no effect and ±100 for the full control effect; potency is the fitted concentration of half-maximal effect; tags give direction and shape of the fitted curve.
Note: nearly all actives have a fitted effect of over 55% in size.

What follows are compounds tested against Glucagon-like peptide 1 receptor (Homo sapiens) (UniProt P43220) (assay: qHTS of GLP-1 Receptor Inverse Agonists (Inhibition Mode)). Conditions: HEK293 GLP-1R CRE-luciferase, luminescence, 24 h, GLP-1R form is constitutively active; activity change, negative = inhibition: at 38.3 µM (top of the series) unless noted.
UniProt P43220, sequence (P43220 whole entry, looked up): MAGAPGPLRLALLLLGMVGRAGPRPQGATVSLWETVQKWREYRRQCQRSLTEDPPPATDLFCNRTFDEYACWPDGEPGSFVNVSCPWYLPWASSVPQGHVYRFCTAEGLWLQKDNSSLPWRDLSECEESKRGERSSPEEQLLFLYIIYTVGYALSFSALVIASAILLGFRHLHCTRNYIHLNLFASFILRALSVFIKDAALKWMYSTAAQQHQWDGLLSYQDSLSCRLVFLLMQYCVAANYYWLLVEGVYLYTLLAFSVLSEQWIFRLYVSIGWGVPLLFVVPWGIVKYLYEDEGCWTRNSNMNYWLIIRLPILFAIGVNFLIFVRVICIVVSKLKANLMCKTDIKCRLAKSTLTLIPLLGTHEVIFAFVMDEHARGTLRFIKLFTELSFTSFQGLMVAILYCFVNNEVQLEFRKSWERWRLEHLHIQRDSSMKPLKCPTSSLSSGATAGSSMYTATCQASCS
Method in brief: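 HEK293 cells stably co-expressing constitutively active GLP-1R and a cAMP-responsive luciferase reporter were seeded in DMEM with 10% Nu serum, given compounds after 12 h, and incubated 24 h at 37 deg C. Luminescence was then read.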
For Cc1c(NC(=O)c2ccc(Cl)cc2)cc(C(C)C)c(O)c1S(=O)(=O)c1ccc(Cl)cc1, the Potency was inconclusive [inhibitor, single point].
CCOC(=O)C1CCN(c2nc(N)c3c(N)nc(SCC(=O)O)cc3c2C#N)CC1 was tested, and the “activity change, negative = inhibition” value was inactive: 6.71%.
In the case of CC(=O)Nc1csc2ccccc12, the “activity change, negative = inhibition” value is reported as inactive: -11.6%.
COc1ccc(NC(=O)C(=O)NCCC2CCCCN2S(=O)(=O)c2ccccc2)cc1 (stereo not given) was tested, and the Potency was inconclusive [inhibitor, full curve].
With CCN(CC)S(=O)(=O)c1cc(-c2nnc(Nc3ccc(OC)c(C(N)=O)c3)c3ccccc23)ccc1C the Potency was inconclusive [inhibitor, single point].
In the case of COc1ccc(NC(=O)c2cccc3c(-c4ccc(O)c(OC)c4)coc23)cc1, the Potency is reported as inconclusive [inhibitor, single point].
CC(CN1CCOCC1)OC(=O)C(C)(c1ccccc1)c1ccccc1 (stereo not given) was tested, and the Potency was inconclusive [inhibitor, partial curve, poor fit].
For CNS(=O)(=O)c1cccc(C(=O)OCC(=O)Nc2ccc(-c3nc4ccc(C)cc4s3)cc2)c1, the “activity change, negative = inhibition” value was inactive: 7.22%.
O=C(COc1ccccc1)NCC1(N2CCCCC2)CCCCC1 was tested, and the “activity change, negative = inhibition” value was inactive: 17.3%.
For CN(CC(=O)Nc1ccc(Cl)cc1)C1CCCCC1, the Potency was inconclusive [inhibitor, single point].
With Cc1ccc(Nc2c(-c3cc(Br)ccc3F)nc3cc(C)ccn23)cc1 the Potency was inconclusive [inhibitor, partial curve, poor fit].
In the case of Cc1ccc(NC(=O)c2cccc(N3CCCS3(=O)=O)c2)cc1, the Potency is reported as inconclusive [inhibitor, partial curve, poor fit].
For Cc1c(N=Nc2c(-c3ccc([N+](=O)[O-])cc3)[nH]n(C(N)=S)c2=O)cccc1[N+](=O)[O-], the Potency was inconclusive [inhibitor, full curve, poor fit].
For Cc1sc2cc3c(c(C(=O)c4ccccc4)[n+]2c1C)-c1cccc2cccc-3c12, the Potency was inconclusive [inhibitor, full curve].
With Cc1ccc(C(C)C)c(OCCN(C)C)c1 the “activity change, negative = inhibition” value was inactive: -7.19%.
With COc1ccc(N2CCN(CCCNC(=O)C3(S(=O)(=O)c4ccc(Cl)cc4)CC3)CC2)cc1 the “activity change, negative = inhibition” value was inactive: -12.3%.
For Cc1ccc(N(C(=O)COc2ccccc2C)S(=O)(=O)c2ccc(Cl)cc2)cc1, the Potency was inconclusive [inhibitor, single point].
For COc1ccc(OC)c(CNn2c(-c3ccccc3F)nc3ccccc3c2=O)c1, the Potency was inconclusive [inhibitor, partial curve, poor fit].
With CC(C)(C)C(c1nc2ccccc2[nH]1)n1c(-c2cc(Cl)cc(Cl)c2)nc2ccccc21 (stereo not given) the Potency was inconclusive [inhibitor, single point].
CCCCN1C(=O)NC(c2ccc(OC)cc2)C(C(=O)OCc2ccccc2)=C1C (stereo not given) was tested, and the Potency was inconclusive [inhibitor, single point].
With O=C(NCc1cccnc1)c1nn(-c2ccccc2F)nc1CO the “activity change, negative = inhibition” value was inactive: 7.29%.
For Cc1ccc(CNC(=O)CCSCc2ccccc2F)cc1, the Potency was inconclusive [inhibitor, single point].
With CSc1ncc2c(n1)-c1cc(C)ccc1SC2 the Potency was inconclusive [inhibitor, single point].
With CCc1ccc(NC(=O)C(=O)c2cn(CC(=O)N3CCCCC3)c3ccccc23)cc1 the Potency was inconclusive [inhibitor, single point].
In the case of O=C(Nc1nnc(-c2ccccc2)s1)c1cccc(S(=O)(=O)N2CCOCC2)c1, the “activity change, negative = inhibition” value is reported as inactive: -4.67%.
With CCN(Cc1nc2ccccc2c(=O)[nH]1)C(=O)COc1ccccc1Cc1ccccc1 the Potency was active: 12.6 µM.
With CC1=C(C(=O)Nc2cccc(C(=O)NCc3ccccc3C)c2)SCCO1 the Potency was inconclusive [inhibitor, full curve].
In the case of Cc1ccc(-n2nc3c(=O)n(CCCC(=O)N4CCCCC4)nc(C)c3c2C)cc1, the Potency is reported as inconclusive [inhibitor, partial curve, poor fit].
For Cc1cc(C)c2nc(Nc3nc(CSc4nc5ccccc5[nH]4)cc(=O)[nH]3)nc(C)c2c1, the Potency was inconclusive [inhibitor, single point].
CC=Cc1cc2c(c(=O)o1)C(=O)C(O)C(C)O2 (stereo not given) was tested, and the Potency was inconclusive [inhibitor, single point].
With O=C(O)CC1(CC(=O)Nc2cc(C(F)(F)F)cc(C(F)(F)F)c2)CCCCC1 the Potency was inconclusive [inhibitor, single point].
Cc1cccc(C)c1NC(=S)N1CCCN(Cc2ccc(F)cc2)C1 was tested, and the Potency was inconclusive [inhibitor, partial curve, poor fit].
In the case of O=C(CCc1nnc(-c2ccc3c(c2)OCO3)o1)NCCc1ccccc1F, the Potency is reported as inconclusive [inhibitor, partial curve, poor fit].
In the case of COc1cccc(NC(=O)c2ccnc(N3CCC(C(=O)NCc4cc(OC)ccc4OC)CC3)c2)c1, the Potency is reported as inconclusive [inhibitor, single point].
For CC(C)(C)NC(=O)NC(=O)CN1CCCc2ccccc21, the Potency was inconclusive [inhibitor, single point].
CC1CN(C(=O)COC(=O)c2cccc(NS(=O)(=O)c3ccccc3)c2)CC(C)O1 (stereo not given) was tested, and the Potency was inconclusive [inhibitor, single point].
In the case of Cc1nc(Cl)sc1C(=O)Nc1ccc(C(C)(C)C)cc1, the Potency is reported as inconclusive [inhibitor, single point].
In the case of COCCNC(=O)NC12CC3(C)CC(C)(CC(C)(C3)C1)C2, the Potency is reported as inconclusive [inhibitor, partial curve, poor fit].
With CN(C)CC(O)CN(c1ccccc1)c1ccccc1 (stereo not given) the Potency was inconclusive [inhibitor, partial curve, poor fit].
With CC1CCCN(C(=O)CN2C(=O)c3ccccc3S2(=O)=O)C1 (stereo not given) the Potency was inconclusive [inhibitor, partial curve, poor fit].
